Measurements as given in PubChem BioAssay (Tox21).
Several values for one entry are separate records, joined by “and”; a condition that tells them apart may be missing. Equal values may be shown once. Inconclusive means that the source gave no clear call. Such entries were picked first, then a sample of the others. A potency beside an inconclusive call is a rough fit, not a confirmed value. Some structures have more than one record in an assay (separate samples or runs), and their calls can disagree. Activity calls are given as the source filed them. Calls come from the whole dose curve; as a rule, active = well fitted curve in the direction sought with a large enough effect in the repeat runs; inconclusive = weak or mixed curves; inactive = no such curve, though single readings can be large; an effect the other way counts as inactive or inconclusive.

System: not listed separately
Assay: Caspase-3/7 induction in HepG2 cells by small molecules, qHTS cell viability counter screen (AID 1346981); note: nearly all actives have a fitted effect of over 30% in size
Settings: CellTiter-Fluor fluorescence, 17 h; series mostly up to 92.4 µM
In short: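 Counter screen for cytotoxicity: HepG2 exposed 16 hr to compounds, then CellTiter-Fluor viability signal (fluorescence, 1 hr reagent incubation).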
Potency is the fitted concentration of half-maximal effect; tags give direction and shape of the fitted curve.

Row | SMILES | Potency
1 | O=CC(Br)(Br)Br | active: 54.3 µM
2 | [O]=[Cr](=[O])([OH])[O][Cr](=[O])(=[O])[OH] | active: 5.5 µM and active: 4.85 µM
3 | O=C(Nc1ccccc1)Nc1ccnc(Cl)c1 | inconclusive: 68.6 µM [cytotoxic, single point]
4 | C#CCOS(=O)OC1CCCCC1Oc1ccc(C(C)(C)C)cc1 (stereo not drawn) | inconclusive: 13.7 µM [cytotoxic, partial curve] and inconclusive: 17.2 µM [cytotoxic, full curve]
5 | c1ccc2c(c1)Sc1ccccc1N2CC1CN2CCC1CC2 (stereo not drawn) | active: 29.8 µM
6 | COP(=O)(OC)C(O)C(Cl)(Cl)Cl (stereo not drawn) | inconclusive: 12.3 µM [cytotoxic, partial curve, poor fit]
7 | C[C@@H]1C[C@@H]([C@H](O)CC2CC(=O)NC(=O)C2)C(=O)[C@@H](C)C1 | active: 121 nM and active: 1.72 µM and active: 750 nM

Target: Nuclear receptor subfamily 1 group I member 2 (Homo sapiens) (UniProt O75469)
Sequence of UniProt O75469 (O75469 whole entry, looked up): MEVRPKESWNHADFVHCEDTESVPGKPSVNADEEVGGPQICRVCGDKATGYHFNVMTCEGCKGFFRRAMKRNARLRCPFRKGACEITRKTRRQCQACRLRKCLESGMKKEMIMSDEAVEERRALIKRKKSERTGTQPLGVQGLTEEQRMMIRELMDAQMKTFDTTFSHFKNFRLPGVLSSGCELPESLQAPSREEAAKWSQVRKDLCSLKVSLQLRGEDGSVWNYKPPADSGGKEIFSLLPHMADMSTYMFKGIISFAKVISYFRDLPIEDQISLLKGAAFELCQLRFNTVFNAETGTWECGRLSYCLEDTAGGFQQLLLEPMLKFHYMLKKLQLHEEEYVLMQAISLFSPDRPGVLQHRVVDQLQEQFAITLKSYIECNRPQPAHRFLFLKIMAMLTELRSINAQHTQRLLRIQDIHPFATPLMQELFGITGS
Assay: Human pregnane X receptor (PXR) small molecule agonists, qHTS assay (AID 1346982); note: nearly all actives have a fitted effect of over 35% in size
Settings: PXR-Luc HepG2, CYP3A4 luciferase reporter, 24 h; series mostly up to 92.4 µM
In short: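 Luminescence (ONE-Glo, 30 min RT) after 24 hr compound exposure of PXR-Luc HepG2 cells; cells rested 5 hr post-plating in 5% charcoal-stripped FBS medium.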

Row | SMILES | Potency
8 | c1cc[c]([Hg][c]2ccccc2)cc1 | active: 10.9 µM
9 | Oc1cc(Cl)c(Cl)c(Cl)c1 | active: 29.1 µM
10 | CN1CSC(=S)N(C)C1 | inconclusive: 1.71 µM [activator, full curve, poor fit]
11 | Nc1ccccc1-c1ccccc1 | inconclusive: 54.2 µM [activator]
12 | Cc1cc(Cl)ccc1OCCCC(=O)O | inconclusive: 31.9 µM [activator, partial curve]
13 | C[C@H]1O[C@@H](O[C@H]2[C@@H](O)C[C@H](O[C@H]3[C@@H](O)C[C@H](O[C@H]4CC[C@@]5(C)[C@H](CC[C@@H]6[C@@H]5CC[C@]5(C)[C@@H](C7=CC(=O)OC7)CC[C@]65O)C4)O[C@@H]3C)O[C@@H]2C)C[C@H](O)[C@@H]1O | inconclusive: 0.0195 µM [activator, partial curve]
14 | CC(C)(c1ccc(OCC2CO2)cc1)c1ccc(OCC2CO2)cc1 (stereo not drawn) | inconclusive: 61.1 µM [activator]
15 | COc1ccc(C(CN(C)C)C2(O)CCCCC2)cc1 (stereo not drawn) | inconclusive: 61.1 µM [activator, partial curve]
16 | COc1ccc(C(c2ccc(OC)cc2)C(Cl)(Cl)Cl)cc1 | active: 17.1 µM
17 | CCCCCCCCCCCCn1cc[n+](C)c1 | inconclusive: 9.73 µM [activator, partial curve]
18 | O=[N+]([O-])c1cc(C(F)(F)F)c(Cl)c([N+](=O)[O-])c1Cl | inconclusive: 19.3 µM [activator, single point]
19 | CN1CCc2cc3c(cc2C1O)OCO3 (stereo not drawn) | inconclusive: 38.8 µM [activator, partial curve]
20 | COP(=O)(OC)SCn1c(=O)oc2cc(Cl)cnc21 | inconclusive: 61.1 µM [activator]
21 | CC1(C)C(C(=O)OC(C#N)c2cccc(Oc3ccccc3)c2)C1(C)C (stereo not drawn) | inconclusive: 3.06 µM [activator, partial curve, poor fit]
22 | O=CC(Br)(Br)Br | inconclusive: 27.2 µM [activator, single point]
23 | C#CCOS(=O)OC1CCCCC1Oc1ccc(C(C)(C)C)cc1 (stereo not drawn) | active: 8.64 µM and active: 6.86 µM
